In the RNAGym collection of RNA variant scans (doi:10.1093/nar/gkz1192):
Read counts are not given, so values of variants with three or more changes are uncertain.

B1: CPEB3 Ribozyme (parent)
chain: UAACAGGGGGCCACAGCAGAAGCGUUCACGUCGCAGCCCCUGUCAGAUUCUGGUGAAUCUGCGAAUUCUGCUGUAUAUCUC

Variants of: B1
Test: self-cleavage, relative activity (ratio to wild type); higher = more cleavage; in vitro, sequencing
Outline: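 Relative activity was defined as the cleaved/total read fraction for a variant divided by the same fraction for the unmutated ribozyme. CPEB3 self-cleaving ribozyme libraries were made by rounds of error-prone PCR, barcoded, and transcribed in vitro with T7 RNA polymerase for 5 hours at 37°C, and cleavage ran through transcription plus a 15 min DNase I step before EDTA. Illumina sequencing of template-switched reverse transcripts gave the reads, and DNA sequencing mapped the barcodes. Averages come from three batches, using variants with at least 5 reads.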
UAACAGGGGGCCUCAGCGGAAGCGUUCACGGCGCGGCCCCAGUCAGAUUCUGGUGAACCUGCGAAUUCUGCUGUAUAUCUC [A13U A18G U31G A35G U41A U58C] showed a self-cleavage of 0.04. UAACAGGGGGCCUCGGCAGAGGCGUUCACGUCGCCGCCCCUGUCUGAUUCUGGUGAAUCUGUGAAUUCUGCUGUAUAUCUC [A13U A15G A21G A35C A45U C62U] showed a self-cleavage of 0.07. Work on UAACAGGGGGCCUCGACAGAAGCGUUCACGUCGCAGCCCCUGUCAGAUUCUGGUGAAUCAGCGAAUUCUGCUGUAUAUCUC [A13U A15G G16A U60A] yielded a self-cleavage of 0.19. Variant UAACAGGGGGCCGCAGCAGAAGCGUUCACGUCGCAGCCCCUGUCAGACUCUGGUGAAUCUGCGAACUCUGCUGUAUAUCAC [A13G U48C U66C U80A] has a self-cleavage of 0.11. For UAACAGGGGGCCGCAGCAGAAGCGUUCACGUCGCAGCCCCUGUCAGAUCCUGGAGAAUCUUCGAAUUCUGCUGUAUAUCUC [A13G U49C U54A G61U], the self-cleavage was 0.1. With UAACAGGGGGCCGCAGCAGAAGCGUUCACGUCGCAGCCCCUGUCAGAUCCUGGUGAAUCUGCAAAUUCUGCUGUGUAUCUC [A13G U49C G63A A75G] the self-cleavage was 0.37. For UAACAGGGGGCCUCAGCGGAAGCGUUCACGUCGCAGCCCUUGUCAGAUUCUGGUGAAUCUGCGAAUCCUGCUGUAUAACUC [A13U A18G C40U U67C U78A], the self-cleavage was 0.11. Variant UAACAGGGGGCCGCAGCAGAAGCGUUCACGUCGCAGCCCCUGUCAGAUUCAGGUGAAUCCGCGAAUUCUGCCGUAUAUCUC [A13G U51A U60C U72C] has a self-cleavage of 0.23. In the case of UAACAGGGGGCCUCGGCAGAGGCGUUCACGUCGCAGCCCCUGUCAGAUUCUGGUGUAUCUGCGAAAUCUGCAGUAUAUCCC [A13U A15G A21G A56U U66A U72A U80C], the self-cleavage is reported as 0.05. UAACAGGGGGCCGCAGCAGAAGCGUUCACGUCGCAGCCCCUGUCAGAUCCUGGUGUAUCUGCGAAUUCUGCUGUAUAUCUC [A13G U49C A56U] gave a self-cleavage of 0.2. With UAACAGGGGGCCGCAGCAGAAGCGUUCACGUCGCAGCCCCUGCCAGAUUCUGGUGAAUCUGCGAAUUCUGCUGUAUAUCAC [A13G U43C U80A] the self-cleavage was 0.72. Variant UAACAGGGGGCCGCAGCAGAAGCGUUCACGUCGCAGCCCCUGUCAGAUUCUGGGGAAUCUGCCAUUUCAGCUGUAUAUCUC [A13G U54G G63C A65U U69A] has a self-cleavage of 0.16. With UAACAGGGGGCCUCAGCGGAAGCGUUCACGUCGUAGCCCCUGUCAGAUUCUGGUGAAUCUGUGAAUUCUGCUGUAUAUCUC [A13U A18G C34U C62U] the self-cleavage was 0.13. In the case of UAACAGGGGGCCUCCGCAGAAGCGUUCACGUCGCAGCCCCUGUCAGAUCCUGGUGAAUCUGCGAAUUCUGCUGUAUAUCUC [A13U A15C U49C], the self-cleavage is reported as 0.22. UAACAGGGGGCCUCCGCAGAAGCGUUCACGUCGCAGCCCCUGUAUGAUUCUGGUGAAUCUGCGAAUUCUGCUGUAUAUCCC [A13U A15C C44A A45U U80C] showed a self-cleavage of 0.3. For UAACAGGGGGCCUCGGCAGAAGCGUACACGUCGCAGCCCCUGUCAGAUUCUGGUGAAUCUGCGAGUUCUGCUGUAUAUCUC [A13U A15G U26A A65G], the self-cleavage was 0.27. UAACAGGGGGCCGCAGCAGAAGCGUUCACGUCGCAGCCCCUGCCAGAUUCGGGUGAAUCUGCGAAUUCUGCUGUAUAUCUC [A13G U43C U51G] gave a self-cleavage of 0.28. In the case of UAACAGGGGGCCGCAGCAGAAGCGUUCACGUCGCAGCCCCUGACAGAUUCUGGUGAGUCUGCGAGUUCUGCUGUAUAUCUC [A13G U43A A57G A65G], the self-cleavage is reported as 0.28. Variant UAACAGGGGGCCGCAGCAGAAGCGUUCACGUCGCAGCCCCUGUCAGAUCCUGGUGAAUCUGCGAAUUCUGCAGUAUAUCUC [A13G U49C U72A] has a self-cleavage of 0.29. In the case of UAACAGGGGGCCGCAGCAGAAGCGUUCACGUCGCAGCCCCUGUCAGAUCCUGGUGAAUCUGCGAAUACUGCUGUAUAACUC [A13G U49C U67A U78A], the self-cleavage is reported as 0.11. Work on UAACAGGGGGCCGCAGCAGAAGCGUUCACGUCGCAGCCCCUGUCAGAUUCUGGCGAAUCUGCGAAUUCGGCUGUAUAUCUC [A13G U54C U69G] yielded a self-cleavage of 0.45. UAACAGGGGGCCUCAGCCGAAGCGUUCACGUCGCAGCCCCUGUCGGAUUCUGGUGAAUCUGCGAAUACUGCUGUACAUCUC [A13U A18C A45G U67A U76C] showed a self-cleavage of 0.22. UAACAGGGGGCCUCAGCGGAAGCGUUCACGUCGCAGCCCCUGUCAGAUUCUGGUGAACUUGCGAAUUCUGCCGUAUAUCUC [A13U A18G U58C C59U U72C] showed a self-cleavage of 0.2. UAACAGGGGGCCUCAGCGGAAGCGCUCACGUCGCUGCCCCUGUCAGAUUCUGGUAAAUCUGCGAAUUCCGCUGUAUAUCUC [A13U A18G U25C A35U G55A U69C] showed a self-cleavage of 0.06. In the case of UAACAGGGGGCCGCAGCAGAAGCGUUCACGUCGCAGCCCCUGUCAGAUUCUGGUGAAUCUGCGAACUCUGCUGUAUAUCCC [A13G U66C U80C], the self-cleavage is reported as 0.25. UAACAGGGGGCCGCAGCAGAAGCGUUCACGUCGCAGCCCCUGUCAGAUUCUGGUGAAACUGCGGAAUCUGCAGUAUAUCUC [A13G U58A A64G U66A U72A] gave a self-cleavage of 0.07. Variant UAACAGGGGGCCUCUGCAGAAGCGUUCACGACGCAGCCCCUGUCAGAUUCUGGUGUAUCUGCGAAUUCUGCCGUAUAUCUC [A13U A15U U31A A56U U72C] has a self-cleavage of 0.17. For UAACAGGGGGCCUCAGCGGAAGCGUUCACGUCGCAGCCCCUGUCAGAUUCUGGUGAAUCUGCGAAUUCUGCUGUAAAUCUC [A13U A18G U76A], the self-cleavage was 0.28. Variant UAACAGGGGGCCGCAGCAGAAGCGUUCACGUCGCAGCCCCUGACAGAUUCUGGAGAAUCUGCGAAUUCUGCUGUAUAUCUC [A13G U43A U54A] has a self-cleavage of 0.97. Variant UAACAGGGGGCCGCAGCAGAAGCGUUCACGUCGCAGCCCCUGUCAGAUUCUGGUGAAUCUGCGAAUUCUGCGGUACUUCUC [A13G U72G U76C A77U] has a self-cleavage of 0.68. Variant UAACAGGGGGCCUCAGCGGAAGCGUUCACGACGCUGCCCCUGUCAGAUUCUGGAGAAUCUGCAAAUUCUGCUGUAUAUCUC [A13U A18G U31A A35U U54A G63A] has a self-cleavage of 0.21. For UAACAGGGGGCCUCGGCAGAAGCGUUCGCGGCGCAGCCCCUGUCUGAUUCUGGUGAAUCCGCGAAUUCUGCUGUAUAUCUC [A13U A15G A28G U31G A45U U60C], the self-cleavage was 0.07. For UAACAGGGGGCCGCAGCAGAAGCGUUCACGUCGCAGCCCCUGCCAGAUUCUGGUGAAUCUGCGAAUUCUGCUGAAUAUCUC [A13G U43C U74A], the self-cleavage was 0.88. UAACAGGGGGCCUCGGCAGAAGCGUUCACGUCGCUGCCCCUGUCAGAUUAUGGUGAAUCUGCGAAUUCCGCUGUAUAUCUC [A13U A15G A35U C50A U69C] showed a self-cleavage of 0.16.
